These results are taken from the supplement of paper PMC3656093.

± gives the standard deviation of the averaged measurements. Whole data set: some 1,900 compounds, median “CD40L-induced NF-kB luciferase activity, plate-corrected, relative to DMSO (0) and IKK inhibitor VII (-100) controls” near 0.032, cut for the lowest 2% near -26. This is one part of the list.

The test system of this assay is BL2-NFkB-Luc. The experiment in a line: CD40L-induced NF-kB luciferase activity, plate-corrected, relative to DMSO (0) and IKK inhibitor VII (-100) controls (% normalized activity); higher = more NF-kB reporter activity (less inhibition). The following applies: 9.4 µM; stimulus: tCD40L 64 ng/ml; 4.5 h. The method, then:
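BL2 B cells with a stable NF-kB response-element luciferase reporter (BL2-NFkB-Luc), 384-well. Cells were pre-incubated with compound at 9.4 uM for 1 h at 37 C, then stimulated with 64 ng/ml trimerized CD40L for 4.5 h; luciferase was read with Steady-Glo. Signal was normalised per plate in Genedata (median DMSO neutral control = 0, median IKK inhibitor VII at 50 uM = -100) with Assay Median plate-pattern correction; duplicate plates.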
With `C[N+](C)(C)CCCCCCCCCC[N+](C)(C)C`, the “CD40L-induced NF-kB luciferase activity” value was -4.54 ± 9.3. For the compound `Cc1cc(Cl)ccc1OCC(=O)O`, the “CD40L-induced NF-kB luciferase activity” value was -0.759 ± 6.9.

Regarding `CCCN1C[C@H](CSC)C[C@@H]2c3cccc4[nH]cc(c34)C[C@H]21`, the “CD40L-induced NF-kB luciferase activity” value was -2.59 ± 7.8.

For the compound `CN1C(=O)N(C)C(=O)C2(Cc3ccccc3N3CCOCC32)C1=O` (configuration not stated), the “CD40L-induced NF-kB luciferase activity” value was found to be 4.38 ± 0.45.

For the compound `NNC(=O)c1ccc(Cl)cc1`, the “CD40L-induced NF-kB luciferase activity” value was determined as 7.99 ± 1.9.

On to `COc1cc2c3cc1Oc1cc(ccc1O)C[C@@H]1c4c(cc(OC)c(O)c4Oc4ccc(cc4)C[C@H]3N(C)CC2)CCN1C`, for which the “CD40L-induced NF-kB luciferase activity” value came to 0.462 ± 2.1. Take `CCNC(=S)N(C)CCc1cc2c(c(OC)c1C=C1C(=O)N(C)C(=O)N(C)C1=O)OCO2`: the “CD40L-induced NF-kB luciferase activity” value amounted to 6.09 ± 0.4. With `COP(=S)(OC)SCN1C(=O)c2ccccc2C1=O`, the “CD40L-induced NF-kB luciferase activity” value was -0.0255 ± 0.76. With `COc1ccc(CCN2CCC(Nc3nc4ccccc4n3Cc3ccc(F)cc3)CC2)cc1`, the “CD40L-induced NF-kB luciferase activity” value is -4.18 ± 3.9.

Consider `C[C@H]1CCC[C@H](O)CCCCCc2cc(O)cc(O)c2C(=O)O1`, for which the “CD40L-induced NF-kB luciferase activity” value was -16.2 ± 1.5. For `COC1=CC(=O)OC(/C=C/c2ccccc2)C1` (configuration not stated), the “CD40L-induced NF-kB luciferase activity” value stood at 1.92 ± 3.3. For the compound `Clc1ccc(C2NCCc3[nH]cnc32)cc1` (configuration not stated), the “CD40L-induced NF-kB luciferase activity” value worked out at 2.35 ± 1.1. `CC12CN3CC(C)(CN(C1)C3c1cccs1)C2O` (configuration not stated): the “CD40L-induced NF-kB luciferase activity” value was -2.02 ± 2.9. For `COc1ccc(Cc2nccc3cc(OC)c(OC)cc23)cc1OC`, the “CD40L-induced NF-kB luciferase activity” value was -24.6 ± 1.4. Consider `CC1CCC[C@H](O)CCCCCc2cc(O)cc(O)c2C(=O)O1` (some centres not stated), for which the “CD40L-induced NF-kB luciferase activity” value is -5.81 ± 1.4. For `CN1C2CCC1CC(OC(=O)c1ccc(Cl)cc1)C2` (configuration not stated), the “CD40L-induced NF-kB luciferase activity” value was -2.24 ± 2.5. As to `CC(C)(C)NCC(O)c1cc(Cl)c(N)c(Cl)c1` (configuration not stated), the “CD40L-induced NF-kB luciferase activity” value is -3.51 ± 17.

`CCOC(=O)c1cc2c(cn1)[nH]c1ccccc12`: the “CD40L-induced NF-kB luciferase activity” value is 38.8 ± 20. Then `NCCc1ccc(O)cc1`, with 6.48 ± 5.3; and `CN1[C@@H]2CC[C@H]1CC(OC(=O)C(CO)c1ccccc1)C2` (some centres not stated), with -0.533 ± 0.51; and `C[N+]1(C)CCN(c2ccccc2)CC1`, with -7.2 ± 2.2. Regarding `COc1ccc2c3c([nH]c2c1)C(C)=NCC3`, the “CD40L-induced NF-kB luciferase activity” value is -0.0193 ± 0.26. For `C[C@@H]1O[C@@H](O[C@H]2C[C@@H](O)[C@]3(CO)[C@H]4[C@H](O)C[C@]5(C)[C@@H](C6=CC(=O)OC6)CC[C@]5(O)[C@@H]4CC[C@]3(O)C2)[C@H](O)[C@H](O)[C@H]1O`, the “CD40L-induced NF-kB luciferase activity” value was -78.94 ± 0.33. Take `O=S(=O)(c1ccc(F)cc1)N1CCCCC1c1cccnc1` (configuration not stated): the “CD40L-induced NF-kB luciferase activity” value is -2.98 ± 5.6. As to `CC(=O)C1=C(C)OC(N)=C(C(=O)OC(C)C)C12C(=O)Nc1ccccc12` (configuration not stated), the “CD40L-induced NF-kB luciferase activity” value is -8.11 ± 3.9. In the case of `Fc1ccc(C(OCCN2CCCC2)c2ccc(Br)cc2)cc1` (configuration not stated), the “CD40L-induced NF-kB luciferase activity” value came out at 3.13 ± 0.33.

`CC(C)NC(C)C(=O)c1ccc2ccccc2c1` (configuration not stated): the “CD40L-induced NF-kB luciferase activity” value worked out at 6.46 ± 0.37. For `CCN1CC2(COC(=O)c3ccccc3N)CCC(OC)C34C5CC6C(OC)CC(O)(C5C6OC)C(O)(C(OC)C23)C14` (configuration not stated), the “CD40L-induced NF-kB luciferase activity” value was -1.04 ± 0.25. The result for `COc1ccc(OC)c([C@@H](O)[C@H](C)NC(C)(C)C)c1` reads -6.62 ± 15; that for `NC(=O)CN1CCCC1=O`, -2.55 ± 1.3; that for `Cc1cc(OCc2cc(C(=O)O)oc2C)c2c3c(c(=O)oc2c1)CCCC3`, 2.41 ± 3.2.

Take `O=C1NC(=O)C2(Cc3ccccc3N3CCCC32)C(=O)N1c1ccc(Cl)cc1` (configuration not stated): the “CD40L-induced NF-kB luciferase activity” value is 8.57 ± 3.4. In the case of `Cc1nc2ccccc2c(=O)n1-c1ccc(C(=O)O)cc1`, the “CD40L-induced NF-kB luciferase activity” value was determined as 4.46 ± 4.7. Consider `Cc1c2ccncc2c(C)c2c1[nH]c1ccccc12`, for which the “CD40L-induced NF-kB luciferase activity” value was determined as 175 ± 18.

As to `COc1cc(/C=C2\C(=O)NC(=O)N(c3ccccc3)C2=O)c([N+](=O)[O-])cc1OC`, the “CD40L-induced NF-kB luciferase activity” value was determined as 2.06 ± 2.5. As for `C[N+]1(C)[C@@H]2CC[C@H]1CC(OC(=O)C(CO)c1ccccc1)C2` (some centres not stated), the “CD40L-induced NF-kB luciferase activity” value was 3.62 ± 3.9. Then `CCOC(=O)C1=C(C)OC(N)=C(C(=O)OCC)[C@@]12C(=O)N(CC(N)=O)c1ccccc12`, with 9.35 ± 2.2; and `CC/C(=C\C=C\[C@@H]1C=C[C@@H]2CCC[C@H]2[C@@H]1C(=O)c1ccc[nH]1)[C@@H]1O[C@@H]([C@@H](C)C(=O)O)CC[C@@H]1C`, with -2.16 ± 7.7; and `CN1CCN(C(=O)OC2c3nccnc3C(=O)N2c2ccc(Cl)cn2)CC1` (configuration not stated), with -0.535 ± 0.21. For the compound `CCNC(=O)[C@H]1O[C@@H](n2cnc3c(N)ncnc32)[C@H](O)[C@@H]1O`, the “CD40L-induced NF-kB luciferase activity” value was -4.01 ± 3.1. As to `CCn1ccnc1CN1CCCC(C(=O)c2cc(F)ccc2OC)C1` (configuration not stated), the “CD40L-induced NF-kB luciferase activity” value is -4.36 ± 8.7. Regarding `Cc1cccc(C)c1NC1=NCCCS1`, the “CD40L-induced NF-kB luciferase activity” value was -0.549 ± 5.8. The result for `CN(C)[C@@H]1C(=O)C(C(N)=O)C(=O)[C@@]2(O)C(=O)C3C(=O)c4c(O)cccc4[C@@](C)(O)[C@H]3[C@H](O)[C@@H]12` (some centres not stated) reads 0.102 ± 0.97. Then `COc1cc([C@@H]2c3cc4c(cc3[C@H](O)[C@H]3COC(=O)[C@H]23)OCO4)cc(OC)c1OC`, with -50.7 ± 3.

For `CN1CC[C@@]23CCCC[C@@H]2[C@@H]1Cc1ccc(O)cc13`, the “CD40L-induced NF-kB luciferase activity” value stood at 2.11 ± 3.6. Consider `CC[C@H]1CN2CCc3cc(OC)c(OC)cc3[C@@H]2C[C@@H]1C[C@H]1NCCc2cc(OC)c(OC)cc21`, for which the “CD40L-induced NF-kB luciferase activity” value was -93.93 ± 0.21. With `C[N+](C)(C)Cc1ccccc1`, the “CD40L-induced NF-kB luciferase activity” value is -5.43 ± 0.3. On to `CCC(COC(=O)c1cc(OC)c(OC)c(OC)c1)(c1ccccc1)N(C)C` (configuration not stated), for which the “CD40L-induced NF-kB luciferase activity” value is -3.99 ± 2.7. For `C[N+]12CCC(CC1)C(OC(=O)C(O)(c1ccccc1)c1ccccc1)C2` (configuration not stated), the “CD40L-induced NF-kB luciferase activity” value was -2.63 ± 1.2. As to `O=C1C(=O)c2ccccc2-c2ccccc21`, the “CD40L-induced NF-kB luciferase activity” value is -94.61 ± 0.41.

For `CN1C2CCC1CC(OC(=O)CCN1CCCC1)C2` (configuration not stated), the “CD40L-induced NF-kB luciferase activity” value is -3.67 ± 0.86.

For `CCOC(=O)C(C)Oc1cc(C)cc2oc(=O)c3c(c12)CCCC3` (configuration not stated), the “CD40L-induced NF-kB luciferase activity” value was -5.6 ± 4.1.
